Reference: PubChem BioAssay AID2100 (National Center for Advancing Translational Sciences (NCATS), 2009)
The campaign covered roughly 300,000 compounds. About 1,200 (0.4%) were called active. Inconclusive results, whose numbers are uncertain, are shown with a selection of clear calls. The call rests on the fitted dose curve; in most records, active means well fitted inhibition curve with a large enough effect; inconclusive means small, poorly fitted or top-dose-only effect, or another doubt; inactive means no such curve, though single readings can be large or run the other way. A potency beside an inconclusive call is a rough fit, not a confirmed value.

Target: Lysosomal alpha-glucosidase (Homo sapiens) (UniProt P10253)
Experiment: qHTS Assay for Inhibitors and Activators of Human alpha-Glucosidase Cleavage of Glycogen;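 on activity change, negative = inhibition: 0% = full enzyme reaction and -100% = no-enzyme basal signal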
Details: recombinant GAA, glycogen substrate, Amplex Red glucose oxidase fluorescence; activity change, negative = inhibition: at 76.4 µM (top of the series) unless noted
Source text: NIH Chemical Genomics Center [NCGC] NIH Molecular Libraries Probe Production Centers Network [MLPCN] MLPCN Grant: R03 MH084841-01 Assay Submitter (PI): Wei Zheng NCGC Assay Overview: Alpha-glucosidase is responsible for the hydrolysis of terminal, non-reducing 1,4-linked alpha-D-glucose residues, which releases alpha-D-glucose. It is a lysosomal hydrolase that is required for the degradation of a small percentage (1-3%) of cellular glycogen in humans. Deficiency of this enzyme results in glycogen-storage disease type II (GSDII), also referred to as Pompe disease, an autosomal recessive disorder. Structurally normal glycogen is accumulated in the lysosomes and cytoplasm in affected patients, primarily in muscle tissues. Excessive glycogen storage within lysosomes may interrupt normal functioning of other organelles and leads to cellular injury. In turn, this leads to enlargement and dysfunction of the entire organ involved (eg: cardiomyopathy and muscle weakness). It has been reported that the improper folding and trafficking of alpha-glucosidase resulting from genetic mutations may account for a significant number of Pompe patients. […] We optimized this alpha-glucosidase assay in 1536-well plate format for identification of novel small molecule inhibitors or activators with structures other than the sugar analogs in order to develop new pharmacological chaperones. Previous assays of alpha-Glucosidase have utilized a non-natural fluorescent substrate to probe enzyme activity. The present assay measures enzyme activity on glycogen using a coupled-assay system to glucose oxidase.
NCGC Assay Protocol Summary: This is an enzyme assay using glycogen from bovine liver (Sigma catalog #: G0885) as the substrate and recombinant human alpha-glucosidase as the enzyme preparation. Upon hydrolysis of the substrate, the glucose product can be detected using the Amplex Red Glucose Oxidase Assay Kit (Invitrogen catalog #: A22189). The product of this reaction can be read with a fluorescence plate reader with an excitation at 573 nm and an emission at 610 nm. Data were normalized to the controls for basal activity (without enzyme) and 100% activity (with enzyme). The AC50 values were determined from concentration-response data modeled with the standard Hill equation. Assay buffer for enzyme reaction: 50 mM citric acid (titrated with potassium phosphate to pH 5.0), 0.01% Tween-20 (pH 5.0 is an optimal condition for this enzyme assay) Assay buffer for Amplex Red reaction: Tris-HCl, pH 7.5 1536-well assay protocol for the alpha-glucosidase assay: (1) Add 2 ul/well alpha-glucosidase enzyme solution (4 nM final) (2) Add 23 nL compounds in DMSO solution. The final titration was 0.7 nM to 77 uM. (3) Add 1 ul of glycogen substrate solution (30 ug) (4) Incubate at 37 C for 40 min (5) Add 2 ul tris-HCl buffer with Amplex Red reagents (6) Incubate 45 min at room temperature. (7) Detect the assay plate in a ViewLux plate reader (PerkinElmer) with Ex=573 nm and Em=610nm. Keywords: Alpha-glucosidase, Pompe Disease, pharmacological chaperone, chaperone therapy, high throughput screening, alpha-glucosidase inhibitor, MLSMR, MLSCN, NIH Roadmap, qHTS and NCGC
Potency means the concentration at half of the fitted maximal effect.

**Q.** How did the Potency turn out when `O=C(CSc1cccc[n+]1[O-])c1cc(Cl)ccc1Cl` was run?
**A.** inconclusive: 11.2 µM [inhibitor, partial curve]

**Q.** With `O=C(O)c1ccc(N/N=C/c2ccncc2)cc1` as the compound, how does the Potency read?
**A.** inconclusive: 44.7 µM [inhibitor, single point]

**Q.** Which “activity change, negative = inhibition” value does the source give for `CC(C)COc1cccc(C(=O)Nc2ccc(-c3nc4ncccc4o3)cc2)c1` here?
**A.** inactive: -0.874% [at 76.3 µM]

**Q.** Which “activity change, negative = inhibition” value does the source give for `CCOC(=O)/C=C/C(=O)OCC(=O)Nc1ccc(Cl)cn1` here?
**A.** inactive: 3.9%

**Q.** With `CCOc1cc(-c2nc3cc(C)ccn3c2NCC2CCCO2)ccc1O` (stereo not given) as the compound, how does the Potency read?
**A.** inconclusive: 8.91 µM [inhibitor, partial curve]

**Q.** For `NNC(=S)NCc1ccccc1`, which Potency is on record?
**A.** inconclusive: 28 µM [inhibitor, single point]

**Q.** For `COc1ccc(-c2c(NC(=O)c3ccco3)oc3ccccc3c2=O)cc1OC`, which Potency is on record?
**A.** inconclusive: 50.1 µM [inhibitor, single point]

**Q.** For `Oc1ccc(Nc2nnc(-c3ccc(O)cc3)c3ccccc23)cc1`, which Potency is on record?
**A.** active: 15.8 µM

**Q.** For `C=CCNC(=S)NN=C1CCCCCCC1`, which Potency is on record?
**A.** active: 35.5 µM

**Q.** For `CCCc1ccc(/C=C2\C(=O)c3ccccc3C(O)=C2C(=O)OCC)cc1`, which Potency is on record?
**A.** inconclusive: 39.8 µM [inhibitor, single point]

**Q.** With `Oc1ccc(C2C[C@H]3CC[C@@H]2C3)cc1O` (stereo not given in full) as the compound, how does the Potency read?
**A.** inconclusive: 50.1 µM [inhibitor, single point]

**Q.** With `Cc1nn(C)cc1C(=O)NNC(=S)Nc1ccc(Cl)cc1` as the compound, how does the Potency read?
**A.** inconclusive: 28 µM [inhibitor, partial curve]

**Q.** For `O=C(NCCN1CCNCC1)c1ccccn1`, which Potency is on record?
**A.** inconclusive: 44.3 µM [activator, partial curve, poor fit]

**Q.** For `NNC(=O)c1sccc1OCc1cccc(C(F)(F)F)c1`, which Potency is on record?
**A.** inconclusive: 11.2 µM [inhibitor, partial curve, poor fit]

**Q.** How did the Potency turn out when `CC(C)(C)C1CCC2(CC1)NC(=S)N(c1ccccc1)N2` (stereo not given) was run?
**A.** inconclusive: 50.1 µM [inhibitor, single point]

**Q.** How did the Potency turn out when `COc1ccc(S(=O)(=O)NNC(=O)c2cc3ccccc3o2)cc1` was run?
**A.** inconclusive: 35.5 µM [inhibitor, partial curve]

**Q.** How did the Potency turn out when `CN(C)N1C(N)=C(C#N)C(c2ccccc2Cl)C2=C1CCCC2=O` (stereo not given) was run?
**A.** inconclusive: 28.2 µM [inhibitor, single point]

**Q.** With `CC(=O)N1CCC2(CC1)C/C(=N\NC(=S)Nc1ccccc1F)c1cc(O)ccc1O2` as the compound, how does the Potency read?
**A.** inconclusive: 44.7 µM [inhibitor, single point]

**Q.** Which Potency does the source give for `C=CCNC(=S)NNC(=O)c1csc(C)c1C` here?
**A.** inconclusive: 12.6 µM [inhibitor, partial curve]

**Q.** How did the Potency turn out when `Cc1c(C2Nc3ccccc3C(=O)N2O)cnn1C` (stereo not given) was run?
**A.** inconclusive: 35.2 µM [inhibitor, single point]

**Q.** Which Potency does the source give for `N#CC(c1ccc(Cl)nn1)c1ccc(Cl)cc1Cl` (stereo not given) here?
**A.** inconclusive: 39.5 µM [inhibitor, partial curve]

**Q.** How did the Potency turn out when `CCC(C)c1ccc(NC(=S)Nc2ccc(OC)cc2)cc1` (stereo not given) was run?
**A.** inconclusive: 17.6 µM [inhibitor, partial curve]

**Q.** `CCOC(=O)N1CCN(C(=O)c2oc3ccc(S(=O)(=O)N4CC(C)CC(C)C4)cc3c2C)CC1` (stereo not given) was tested. Which Potency did it give?
**A.** inconclusive: 28.2 µM [inhibitor, single point]

**Q.** For `O=C(CN1CCN(c2ccccc2O)CC1)Nc1ccc2c(c1)CCC2`, which Potency is on record?
**A.** inconclusive: 10 µM [inhibitor, partial curve]

**Q.** For `Cc1cc(O)c(NC(=O)c2cc([N+](=O)[O-])ccc2Cl)cc1C`, which Potency is on record?
**A.** inconclusive: 3.14 µM [inhibitor, full curve]

**Q.** With `CCC(=O)N1c2ccc(S(=O)(=O)CCC(=O)Nc3ccc(Br)c(C)c3)cc2CC1C` (stereo not given) as the compound, how does the “activity change, negative = inhibition” value read?
**A.** inactive: 7.74% [at 76.3 µM]

**Q.** How did the Potency turn out when `Cc1ccccc1NNC(N)=S` was run?
**A.** inconclusive: 11.2 µM [inhibitor, partial curve]

**Q.** With `Cc1cc(C(=O)NNc2ccc(C(C)C)cc2)n(C(C)(C)C)n1` as the compound, how does the Potency read?
**A.** active: 28.2 µM

**Q.** How did the “activity change, negative = inhibition” value turn out when `CC1=C(C(=O)Nc2ccc(Cl)cc2)C(c2ccc(C(F)(F)F)cc2)n2nnnc2N1` (stereo not given) was run?
**A.** inactive: 8.21% [at 76.3 µM]

**Q.** Which Potency does the source give for `COc1cc2c(N3CCOCC3)cc(O)c(CC(=O)Nc3ccccc3)c2cc1OC` here?
**A.** inconclusive: 25.1 µM [inhibitor, partial curve]

**Q.** `CCc1cccc(C)c1Nc1c(-c2cccc(O)c2)nc2nc(C)cc(C)n12` was tested. Which Potency did it give?
**A.** inconclusive: 17.8 µM [inhibitor, single point]

**Q.** With `CCc1ccccc1Nc1ccc(C(=O)O)cc1N` as the compound, how does the Potency read?
**A.** active: 3.14 µM

**Q.** How did the Potency turn out when `Cc1cc(N/N=C/c2ccc(O)c(C)c2O)nc(-c2ccccc2O)n1` was run?
**A.** inconclusive: 35.5 µM [inhibitor, partial curve]

**Q.** `CC1=NNC(=O)C1CCC(=O)N/N=C\c1cccc(Cl)c1` (stereo not given) was tested. Which Potency did it give?
**A.** inconclusive: 15.7 µM [inhibitor, partial curve]

**Q.** How did the Potency turn out when `COc1ccc(N2C3=C(CC4=C2CCCC4=O)C(=O)CCC3)cc1` was run?
**A.** inconclusive: 11.2 µM [inhibitor, partial curve]
